Sequences and labels used below:
B1: LINE1-full (parent)
chain: UACGUAGGUGGUUUUCCCCUGAUAGUGCUAAGGGGGCCUGGAAGUUUGGACUGGGCAGAGCUCAACACAGCGUGGCAAAGUGGCUGUGGCUAGACUGCCUCUCUGGAUUCCUCGUCACUCAGCAGGGCAUCUCUGAGAGAAAUGCC

Read counts are not given, so values of variants with three or more changes are uncertain.

This series covers variants of B1. Kind of series: self-cleavage, relative activity (ratio to wild type); higher = more cleavage; in vitro, sequencing; the parent is a self-cleaving ribozyme.
For U62C A69G G88U U100C C101A U102C, the self-cleavage came out at 0. With U62C U81C U104C G105A, the self-cleavage was 0.06. With A65C A136U A141G, the self-cleavage came out at 0.02. For U62C A65C U109C C113U A117G, the self-cleavage was determined as 0.2.

Take A64U U109A A121U: the self-cleavage stood at 0.37.

Consider A64G U85A U87A A94G A124U, for which the self-cleavage came to 0. The figure for U62C U112C C116U A136U U143C is 0.03; for A64G G72A C99A U130C it is 0.07; for A64U G126A U134C A138G it is 0.82. G60A A77G U112G: the self-cleavage stood at 0.04. Take U62A U73C C146U: the self-cleavage was 0. Consider A64U U73A A78G, for which the self-cleavage worked out at 0.21. Regarding A65C U96A A124G, the self-cleavage is 0. The figure for A64U A121U A138G is 0.65; for U62A U119A A142G it is 0.05.

For U62C C66U A124U A141G, the self-cleavage worked out at 0.01. The result for U62A U81A U100C reads 0.11; that for C61U U119A A142G, 0.01.

Regarding A64G A117G A142G, the self-cleavage was found to be 0. As for A64G A117G A142U, the self-cleavage stood at 0.3. Take A59U G74A U100C U109C A140U: the self-cleavage came to 0.92. Take G60U C71U G97A U108C: the self-cleavage worked out at 0.02.

For A65G U134C A136G, the self-cleavage amounted to 0.07.

On to U62C U73G A136G, for which the self-cleavage was found to be 0.1. The result for U62G A107G U115A reads 0.17.

U62C G82A A141G: the self-cleavage came to 0.03. For C63U U115C U119G A121G, the self-cleavage was determined as 0.23. The figure for A64U A77U A124G A142G is 0.21. With A64G A79G U115A, the self-cleavage amounted to 0.43. With A65G U104C U132A, the self-cleavage came out at 0. C63A A64G U87A U100C G127A: the self-cleavage was determined as 0.02. For A65U A78U U100C U112C A140G, the self-cleavage worked out at 0.54. As for A64G U109C A117U A136G U143C, the self-cleavage worked out at 0.27.

With U62A A69G U87C, the self-cleavage came out at 0.31. For A64G U73C U143C, the self-cleavage came out at 0.9. As to U62C A65G A140G, the self-cleavage stood at 0.11. The result for C66U A117G C123U reads 0.03; that for A64U A124G U134A, 0.1; that for A65U A69G U109C, 0.09.

Consider A64G A77U G83A, for which the self-cleavage was determined as 0.06. On to A64G G74A U130C, for which the self-cleavage stood at 0.5. The result for A64G U85A U87A reads 0.03; that for U62C U73A U130C, 0.07. Take A64G U73C U134A: the self-cleavage stood at 0.3. As to A64U A129G U134C, the self-cleavage stood at 1.31. Consider U62C U81A U87A, for which the self-cleavage stood at 0.01.

For the variant U62C U81A U87C, the self-cleavage was found to be 0.13. For U62C A64U A136U A142G, the self-cleavage came to 0. The result for C63U U112C U130C reads 0.21; that for U62A A78G G82U C99U, 0.02; that for U62C A79G A136G, 0.07. In the case of U62C G75A U96C A136G, the self-cleavage turned out to be 0. With A65G A78G A121G, the self-cleavage turned out to be 0.15. The figure for A64G C76U U81A A94G U104C is 0.24. In the case of U62C A78G A141G, the self-cleavage is 0. The figure for A64U A136G A141G is 0.45. The figure for A64U A121G U134C is 0.42; for A64U U81G A140G it is 0.12. With A65G A69U U81C A140G, the self-cleavage stood at 0.05. With U62A U134C A140G, the self-cleavage stood at 0. Consider U62C A124G A141G, for which the self-cleavage worked out at 0.11. For the variant A64G U87C A142G, the self-cleavage was determined as 0.38. The figure for A65G U73A U96C A124G is 0. Consider A64C U87C U115C, for which the self-cleavage stood at 0. Turning to U62A A78G A92U A94G, the self-cleavage was determined as 0. With U62A U73C A77G U130C, the self-cleavage worked out at 0. U62C U96C C111U G127A: the self-cleavage was determined as 0.04. In the case of A64U G75U A141G, the self-cleavage amounted to 0.22. The result for A59U U108C A141G reads 1.39.

A65U A78G C116U: the self-cleavage was 0.12. As to U62A A64C U87C C133U, the self-cleavage was found to be 0.03. In the case of A64G C76U U102C U108C, the self-cleavage came out at 0.46. The result for C63U U73C A77U reads 0.31; that for U62C A124U A136G A141G, 0. The figure for U62C C99U A117C is 0.05.

As for A64G A78G A124U, the self-cleavage is 0. With C63U A64G C68U A140G, the self-cleavage stood at 0.03.

Turning to A65G G82A U112A, the self-cleavage worked out at 0.05. For A65C U112C C131U U143C, the self-cleavage stood at 0.04. On to A59U U62C C95U, for which the self-cleavage was determined as 0.02. Regarding A65G U104A U130C, the self-cleavage was 0. For the variant A65G U115A U119C U134C, the self-cleavage is 0. The figure for A59U U91C C99A A141G is 0.11; for C61U A77G U85C U87A U104C it is 0. In the case of U62C U96G U100C A141G, the self-cleavage was 0.09. Take U62C U132G A140G C145A: the self-cleavage is 0.

For the variant C63U A77G U119A A129G, the self-cleavage came to 0.51.

As to A59U U96A A129G A136U, the self-cleavage worked out at 0.05.

As to A64G A78G A79G A117U, the self-cleavage worked out at 0.39. For U62C U100G A124U, the self-cleavage amounted to 0.

A65G C131U U134C: the self-cleavage was 0.16.

Take U62C A67G U85A: the self-cleavage was determined as 0.11. The figure for C66U A77G U87A is 0.04; for U62A G83A U100C it is 0.05; for A65C U81A U108C it is 0.04. As for U62C A92G U134C, the self-cleavage was 0.07. The result for U62A G74U A77G U96A reads 0.01; that for A65G A67G U143C, 0.19.

Take C66U A69U A121G: the self-cleavage amounted to 0.05. For A64G G93U A121C, the self-cleavage is 0.26. For A64G U130C A142C U143C, the self-cleavage turned out to be 0.

Take U62C A67G U109A U115C: the self-cleavage was found to be 0.31. Turning to A65G G72A A92G C131U, the self-cleavage amounted to 0.08. Turning to A65U U104A A129U U143C, the self-cleavage came out at 0.21. For the variant A65G A129G U132C, the self-cleavage is 0.77. In the case of C63U C76A A117G, the self-cleavage was found to be 0.75. For U62C C71A A92G A138U A140G, the self-cleavage amounted to 0. As to A65U U87A U91C, the self-cleavage came out at 0.04. With A65G U109A U132C, the self-cleavage is 0.06. The figure for A65G C71U U100A is 0.04; for A65G C98G G127U A140G it is 0.03. As to U62C C71U A117G, the self-cleavage amounted to 0.05.

Turning to U62A A64G U115C, the self-cleavage turned out to be 0.15. As to U62A A79G C113U A129G, the self-cleavage came to 0.05. In the case of G60A A67G C71A, the self-cleavage stood at 0.02.

With U62C A94G U143A, the self-cleavage is 0. Turning to C66U U96C A129G, the self-cleavage was 0.06. For the variant U62A U91C U115C A142G, the self-cleavage is 0. Turning to A64G U85A U104G A107G, the self-cleavage came out at 0.

Consider U62C A65G A79G, for which the self-cleavage is 0. A64G A92G U112C A141G: the self-cleavage is 0.

In the case of A65G U81A U102C, the self-cleavage stood at 0.05. The result for A65G A117U G126U reads 0.07. As for U62C A77G A124G, the self-cleavage came to 0. Turning to A64G C84U U87C, the self-cleavage was 0.07. In the case of U62C A79G U102C, the self-cleavage was 0.09. With A64G U81G U96C A129G, the self-cleavage came out at 0. As for U62C A64G A69G, the self-cleavage turned out to be 0.

Consider A64G G86A U115C, for which the self-cleavage is 0.11.

With C61U U102C U115C A138G, the self-cleavage was 0.05.

Take A65C U81C A121U G127C U132C: the self-cleavage is 0. The result for U62C U104A U119C reads 0; that for A64G U96A A129G, 0. Consider G60A A64G U81C, for which the self-cleavage was 0. The figure for A65U U104A A117U is 0.04; for A64U A94G A142G it is 0.08.

In the case of U62C A136G U143A, the self-cleavage turned out to be 0.03.

Turning to U62A G122C U134A, the self-cleavage stood at 0.02. Consider A64G G86A A92U, for which the self-cleavage was 0.15. The figure for U62C A65U C71U U96C is 0.12. As to A64G A94G C98U U104C, the self-cleavage was determined as 0.22. Regarding G60A U108C U115C, the self-cleavage worked out at 0.01. As to A65G A136G A142G, the self-cleavage stood at 0. As to A65G C113U U119C A136U, the self-cleavage stood at 0. On to C66U A69G U96C, for which the self-cleavage is 0.05. For the variant A65U C71U A141G, the self-cleavage turned out to be 0.1. Turning to U62C U100C A141G, the self-cleavage is 0.06. A64G C95U A107U U143C: the self-cleavage came out at 0.08. As for A64U U100C U143C, the self-cleavage amounted to 0.56. For the variant A64U U73C U132A, the self-cleavage stood at 0.72. In the case of A65C U81A C145U, the self-cleavage came to 0.01. Turning to U62C C101U U119C, the self-cleavage was 0.04. In the case of A65G A117U A136U, the self-cleavage turned out to be 0.03. Take A64G C68G A94U U112C: the self-cleavage amounted to 0. The result for A65G A77G U109C U112C C123U reads 0. The result for U62A A64G U104C reads 0.04. With A64G U81C A140C, the self-cleavage came to 0. The figure for U62C U119A A129U A138C is 0.05; for A64G A65U A79G it is 0.08.

As to U62C C95U U108C U115C A142G, the self-cleavage came to 0.32. In the case of U62C A79G U104C A140G, the self-cleavage amounted to 0.

As for A65C A79G U108C U134C, the self-cleavage was 0. The figure for A65G U96A G114A A140G is 0; for G60A G106A U108C it is 0.03; for A65G U85C U132C it is 0. Take A64G U81A U85C U96C: the self-cleavage was determined as 0. Regarding G60A U115C A129G, the self-cleavage came to 0.01.

Values taken from the RNAGym collection of RNA variant scans (doi:10.7554/elife.90254).
